# Test results published in PubChem BioAssay AID1745853 (National Center for Advancing Translational Sciences (NCATS), 2022).
# Where “and” joins values, the source holds several entries; their conditions need not be identical. Equal entries are not always repeated. Some of the results follow. The main result of the screen is listed elsewhere. These columns were measured beside it and carry no call.
# Assays:
# Test in all cases: Primary Screen for Target Class Profiling of Small Molecule Inhibitors of Methyltransferases
# [1] = target: Glycine N-methyltransferase (Homo sapiens) (UniProt Q14749); conditions: purified enzyme, MTase-Glo SAH luminescence; measured here: GNMT inhibition; at 40 µM; stronger effect = lower value
# How it was run: (§1)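 Each enzyme was reacted with SAM and its substrate, with compounds tested once at 40 uM; SAH formed was read by MTase-Glo luminescence.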
# [2] = target: Guanidinoacetate N-methyltransferase (Homo sapiens) (UniProt Q14353); conditions: purified enzyme, MTase-Glo SAH luminescence; measured here: GAMT inhibition; at 40 µM; stronger effect = lower value
# How it was run: as §1
# [3] = target: Histamine N-methyltransferase (Homo sapiens) (UniProt P50135); conditions: purified enzyme, MTase-Glo SAH luminescence; measured here: HNMT inhibition; at 40 µM; stronger effect = lower value
# How it was run: as §1
# [4] = target: Nicotinamide N-methyltransferase (Homo sapiens) (UniProt P40261); conditions: purified enzyme, MTase-Glo SAH luminescence; measured here: NNMT inhibition; at 40 µM; stronger effect = lower value
# How it was run: as §1
# [5] = target: Phenylethanolamine N-methyltransferase (Homo sapiens) (UniProt P11086); conditions: purified enzyme, MTase-Glo SAH luminescence; measured here: PNMT inhibition; at 40 µM; stronger effect = lower value
# How it was run: as §1
# On the % scale 0 is the no-effect control and ±100 the full control effect.
smiles,measurement,setting,value
Cn1c(=O)n(C)c2cc(S(=O)(=O)N3CCc4ccccc43)ccc21,"activity change, negative = inhibition",[1],-4.22%
same,"activity change, negative = inhibition",[2],-1.26%
same,"activity change, negative = inhibition",[3],-6.45%
same,"activity change, negative = inhibition",[4],-8.15%
same,"activity change, negative = inhibition",[5],-6.26%
COc1ccc(CCC(=O)N2CCCC(n3cc(-c4nc(-c5ccccc5)no4)nn3)C2)cc1 (stereo not given),"activity change, negative = inhibition",[1],-8.91%
same,"activity change, negative = inhibition",[2],-7.09%
same,"activity change, negative = inhibition",[3],-4.03%
same,"activity change, negative = inhibition",[4],-15.2%
same,"activity change, negative = inhibition",[5],-9.8%
C[C@@H](c1ccccc1)N(C)C(=O)c1cc(COc2cccc(F)c2)[nH]n1,"activity change, negative = inhibition",[1],-7.3%
same,"activity change, negative = inhibition",[2],0.459%
same,"activity change, negative = inhibition",[3],-0.962%
same,"activity change, negative = inhibition",[4],-8.14%
same,"activity change, negative = inhibition",[5],-1.94%
COc1ccc(CN2C(=O)c3cc4sccc4n3CC2(C(=O)NC2CCCCCCC2)c2ccccc2)cc1 (stereo not given),"activity change, negative = inhibition",[1],0.39%
same,"activity change, negative = inhibition",[2],2.07%
same,"activity change, negative = inhibition",[3],-1.23%
same,"activity change, negative = inhibition",[4],-0.738%
same,"activity change, negative = inhibition",[5],-3.43%
CC(CN1C(=O)c2cc3sccc3n2CC1(C)C(=O)NC1CCCCCC1)c1ccccc1 (stereo not given),"activity change, negative = inhibition",[1],-1.05%
same,"activity change, negative = inhibition",[2],4.6%
same,"activity change, negative = inhibition",[3],6.99%
same,"activity change, negative = inhibition",[4],2.24%
same,"activity change, negative = inhibition",[5],-1.38%
Cn1c(=O)c2c(nc(/C=C/c3cccc(Cl)c3)n2C)n(C)c1=O,"activity change, negative = inhibition",[1],-12%
same,"activity change, negative = inhibition",[2],1.51%
same,"activity change, negative = inhibition",[3],-4.27%
same,"activity change, negative = inhibition",[4],-12.6%
same,"activity change, negative = inhibition",[5],-0.3%
Cc1cc(C(=O)N2CCCCc3ccccc32)ccc1CNC(=O)N1CCC[C@H]1C(=O)N(C)C,"activity change, negative = inhibition",[1],6.45%
same,"activity change, negative = inhibition",[2],-0.622%
same,"activity change, negative = inhibition",[3],2.66%
same,"activity change, negative = inhibition",[4],-15.4%
same,"activity change, negative = inhibition",[5],-3.61%
COc1cccc(CN2Cc3cc(NC(=O)Cc4cccs4)ccc3OCC2=O)c1OC,"activity change, negative = inhibition",[1],-4.82%
same,"activity change, negative = inhibition",[2],-0.42%
same,"activity change, negative = inhibition",[3],-11.8%
same,"activity change, negative = inhibition",[4],-13.5%
same,"activity change, negative = inhibition",[5],6.33%
Cn1c(=O)c2ccc(C(=O)NC3CCCCC3)cc2n2c(SCC(=O)c3ccc(F)cc3)nnc12,"activity change, negative = inhibition",[1],1.82%
same,"activity change, negative = inhibition",[2],0%
same,"activity change, negative = inhibition",[3],1.29%
same,"activity change, negative = inhibition",[4],4.91%
same,"activity change, negative = inhibition",[5],6.1%
CCOc1ccc(CCNS(=O)(=O)c2ccc3[nH]c(=O)[nH]c3c2)cc1OCC,"activity change, negative = inhibition",[1],14.4%
same,"activity change, negative = inhibition",[2],1.84%
same,"activity change, negative = inhibition",[3],14.3%
same,"activity change, negative = inhibition",[4],5.61%
same,"activity change, negative = inhibition",[5],4.92%
CN(C)CCCc1cc(C(=O)Nc2ccc(-c3ccncc3)cc2)ccc1O,"activity change, negative = inhibition",[1],-14.8%
same,"activity change, negative = inhibition",[2],3.29%
same,"activity change, negative = inhibition",[3],-79.9%
same,"activity change, negative = inhibition",[4],-12.5%
same,"activity change, negative = inhibition",[5],-3.59%
Cc1nn2c(c1-c1ccccc1C(C)C)N([S+](=O)([O-])c1ccc(C(C)C)cc1)CCC2,"activity change, negative = inhibition",[1],-6.08%
same,"activity change, negative = inhibition",[2],-3.67%
same,"activity change, negative = inhibition",[3],-7.78%
same,"activity change, negative = inhibition",[4],-16.3%
same,"activity change, negative = inhibition",[5],3.28%
CC(=O)OCC(=O)Nc1cc(C#N)cc(NC(=O)COC(C)=O)c1Cl,"activity change, negative = inhibition",[1],6.38%
same,"activity change, negative = inhibition",[2],6.3%
same,"activity change, negative = inhibition",[3],7%
same,"activity change, negative = inhibition",[4],-5.49%
same,"activity change, negative = inhibition",[5],2.39%
CC1(C)CC[C@]2(C(=O)OC3OC(CO)C(O)C(O)C3O)CC[C@]3(C)C(=CCC4[C@@]5(C)CC[C@H](OC6OC(C(=O)O)C(O)C(O)C6O)C(CO)(CO)C5CC[C@]43C)[C@@H]2C1 (stereo not given in full),"activity change, negative = inhibition",[1],0%
same,"activity change, negative = inhibition",[2],-1.02%
same,"activity change, negative = inhibition",[3],0.69%
same,"activity change, negative = inhibition",[4],-11.9%
same,"activity change, negative = inhibition",[5],2.83%
Cn1ncc(Cl)c1-c1cc(C(=O)NC(CN)Cc2ccc(F)c(F)c2)oc1Cl (stereo not given),"activity change, negative = inhibition",[1],-1.36%
same,"activity change, negative = inhibition",[2],4.68% and 1.31%
same,"activity change, negative = inhibition",[3],4.69%
same,"activity change, negative = inhibition",[4],-23.1% and -21.9%
same,"activity change, negative = inhibition",[5],-3.1% and -8.4%
O=C(CCCc1ccccc1)Nc1ccnn1C1CCN(C(=O)c2ccccc2F)CC1,"activity change, negative = inhibition",[1],-0.109%
same,"activity change, negative = inhibition",[2],1.89%
same,"activity change, negative = inhibition",[3],3.21%
same,"activity change, negative = inhibition",[4],-3.22%
same,"activity change, negative = inhibition",[5],-10.6%
COCCCNC(=O)C1(C)Cn2nc(-c3ccccc3)cc2C(=O)N1c1cccc(Cl)c1C (stereo not given),"activity change, negative = inhibition",[1],2.29%
same,"activity change, negative = inhibition",[2],2.12%
same,"activity change, negative = inhibition",[3],5.13%
same,"activity change, negative = inhibition",[4],3.86%
same,"activity change, negative = inhibition",[5],-0.99%
CC(C)N1C(=O)C2(CCN(C(=O)c3ccccc3F)CC2)C1c1ccccc1 (stereo not given),"activity change, negative = inhibition",[1],-6.52%
same,"activity change, negative = inhibition",[2],-7.74%
same,"activity change, negative = inhibition",[3],-5.91%
same,"activity change, negative = inhibition",[4],-15.3%
same,"activity change, negative = inhibition",[5],-14.1%
Cc1nn2c(c1-c1ccccc1C(C)C)N(C(=O)c1cccnc1)CCC2,"activity change, negative = inhibition",[1],-6.09%
same,"activity change, negative = inhibition",[2],-6.88%
same,"activity change, negative = inhibition",[3],-4%
same,"activity change, negative = inhibition",[4],-19%
same,"activity change, negative = inhibition",[5],-13.8%
COc1cccc(NC(=O)N2CCn3cccc3C2C)c1 (stereo not given),"activity change, negative = inhibition",[1],-6.6%
same,"activity change, negative = inhibition",[2],4.48%
same,"activity change, negative = inhibition",[3],-6.94%
same,"activity change, negative = inhibition",[4],-16.8%
same,"activity change, negative = inhibition",[5],-4.5%
COc1cccc(N2C(=O)c3cc4occc4n3CC2(C)C(=O)NC2CCCCCC2)c1 (stereo not given),"activity change, negative = inhibition",[1],1.88%
same,"activity change, negative = inhibition",[2],-37.7%
same,"activity change, negative = inhibition",[3],4.57%
same,"activity change, negative = inhibition",[4],9.14%
same,"activity change, negative = inhibition",[5],3.81%
CC1(C(=O)NC2CCCCCC2)Cc2ccccc2C(=O)N1CCN1CCOCC1 (stereo not given),"activity change, negative = inhibition",[1],-4.76%
same,"activity change, negative = inhibition",[2],4.69%
same,"activity change, negative = inhibition",[3],5.66%
same,"activity change, negative = inhibition",[4],8.11%
same,"activity change, negative = inhibition",[5],-1.77%
Cc1ccc(CNC(=O)CN2C(=O)C(c3ccccc3)=NC23CCCCC3)cc1,"activity change, negative = inhibition",[1],-5.04%
same,"activity change, negative = inhibition",[2],-3.19%
same,"activity change, negative = inhibition",[3],1.13%
same,"activity change, negative = inhibition",[4],-6.2%
same,"activity change, negative = inhibition",[5],-2.52%
COc1ccc(-c2cc(N3CCC(NC(=O)c4ccncc4)C3)n[nH]2)cc1 (stereo not given),"activity change, negative = inhibition",[1],-12.6%
same,"activity change, negative = inhibition",[2],-8.66%
same,"activity change, negative = inhibition",[3],-4.71%
same,"activity change, negative = inhibition",[4],-15.6%
same,"activity change, negative = inhibition",[5],-14.2%
CC(C)CCn1c(=O)c2ccccc2n2c(CCC(=O)NCc3cccnc3)nnc12,"activity change, negative = inhibition",[1],2.13%
same,"activity change, negative = inhibition",[2],2.06%
same,"activity change, negative = inhibition",[3],7.62%
same,"activity change, negative = inhibition",[4],1.29%
same,"activity change, negative = inhibition",[5],2.55%
C=CCNC(=O)N[C@H]1C[C@H]2C(=O)Nc3ccc(/C=C/c4ccc(OC)cc4)cc3C(=O)N2C1,"activity change, negative = inhibition",[1],-11.4%
same,"activity change, negative = inhibition",[2],-10.6%
same,"activity change, negative = inhibition",[3],-8.27%
same,"activity change, negative = inhibition",[4],-7.29%
same,"activity change, negative = inhibition",[5],-6.9%
FC(F)(F)c1ccc(N2C3CCC2CN(Cc2ccc(-c4cccs4)cc2)C3)cc1,"activity change, negative = inhibition",[1],-1.07%
same,"activity change, negative = inhibition",[2],2.97%
same,"activity change, negative = inhibition",[3],-0.164%
same,"activity change, negative = inhibition",[4],0.053%
same,"activity change, negative = inhibition",[5],1.25%
Cc1nc2c([nH]1)c(=O)n(C)c(=O)n2Cc1ccco1,"activity change, negative = inhibition",[1],-5.08%
same,"activity change, negative = inhibition",[2],7.19%
same,"activity change, negative = inhibition",[3],-0.238%
same,"activity change, negative = inhibition",[4],-3.67%
same,"activity change, negative = inhibition",[5],7.66%
Cc1ccc(NC(=O)N2CCn3c(C)ccc3C2C(C)C)c(C)c1 (stereo not given),"activity change, negative = inhibition",[1],-2.47%
same,"activity change, negative = inhibition",[2],3.17%
same,"activity change, negative = inhibition",[3],-7.56%
same,"activity change, negative = inhibition",[4],-10.6%
same,"activity change, negative = inhibition",[5],-7.24%
CCOC(=O)CNC(=O)N1Cc2c(sc3c2CCCC3)-n2cccc2C1c1ccc(C(C)C)cc1 (stereo not given),"activity change, negative = inhibition",[1],-0.789%
same,"activity change, negative = inhibition",[2],1.31%
same,"activity change, negative = inhibition",[3],4.13%
same,"activity change, negative = inhibition",[4],-1.56%
same,"activity change, negative = inhibition",[5],8.66%
